According to the supplement of paper PMC12217912:
The other results are listed elsewhere or left out. Sequences were assembled here from the parent chain. Inactive controls read about 0.05.

B1: TEV protease; numbered along this chain (parent)
chain: MGESLFKGPRDYNPISSSICHLTNESDGHTTSLYGIGFGPFIITNKHLFRRNNGTLVVQSLHGVFKVKDTTTLQQHLVDGRDMIIIRMPKDFPPFPQKLKFREPQREERICLVTTNFQTKSMSSMVSDTSCTFPSGDGIFWKHWIQTKDGQCGSPLVSTRDGFIVGIHSASNFTNTNNYFTSVPKNFMELLTNQEAQQWVSGWRLNADSVLWGGHKVFMVKPEEPFQPVKEATQL

Variants of: B1
Assay: raw area under fraction-flipped curve 0-4 h after induction (AUC4h, not background-subtracted), DNA-recorder readout of cleavage of the substrate (dimensionless); higher = more cleavage of the substrate by the protease variant
Conditions: temperature: 34 °C; time window: 0-4 h after rhamnose induction
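Also: Bxb1 expression induced with 0.2% (w/v) L-rhamnose at OD600 near 0.5, cultures sampled hourly, flipped fraction per protease–substrate barcode pair counted by paired-end Illumina sequencing.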

Variant	area with substrate EALYFQS	area with substrate ECLYFQS	area with substrate EDLYFQS	area with substrate EELYFQS	area with substrate EHLYFQS	area with substrate EILYFQS	area with substrate EKLYFQS	area with substrate ELLYFQS	area with substrate EMLYFQS	area with substrate ERLYFQS	area with substrate ESLYFQS	area with substrate EVLYFQS	area with substrate EWLYFQS	area with substrate EQLYFQS	area with substrate ETLYFQS	area with substrate EYLYFQS	area with substrate EGLYFQS	area with substrate EPLYFQS	area with substrate EFLYFQS
S169C	0.117	0.0912	0.118	0.109	0.1	0.0693	0.0872	0.117	0.0703	0.0841	0.094	0.0853	0.091						
S169A	0.119	0.136	0.131	0.15	0.127	0.0561	0.106		0.164	0.138	0.134	0.127		0.146	0.0972	0.108			
S169N	0.0574	0.0647		0.0506	0.062	0.0611			0.0502	0.0623	0.0638	0.0548	0.0601	0.0588		0.061	0.0614	0.0534	
V183I	0.0993	0.103	0.106	0.149	0.106		0.147	0.0813		0.0974	0.0923	0.0515			0.127		0.102		
V183C	0.114	0.117	0.138	0.115	0.0638	0.0583	0.124		0.127	0.114	0.0951	0.107	0.0861		0.128		0.0851		0.116
K148N	0.0893	0.0816	0.095		0.0799	0.0879	0.0927	0.0906		0.0741	0.0791	0.0807	0.0801	0.0885	0.0799		0.0866	0.0859	
K148M	0.122	0.109	0.148	0.163	0.118	0.09	0.0936	0.106	0.13	0.0931	0.122	0.096						0.111	0.123
K148T	0.0635	0.0661	0.119	0.114	0.0864	0.0871	0.105	0.0855	0.158		0.107	0.0784		0.111		0.0868		0.0994	
I164H	0.0565	0.0384	0.0621				0.0534		0.0666	0.0561	0.0455	0.04			0.0492		0.0612	0.0597	0.0317
I164L	0.11	0.108		0.1	0.129	0.0928	0.0771	0.0843		0.0991	0.0999	0.0823	0.0792	0.0955		0.099			0.0852
I164E	0.0698	0.0427	0.0613	0.0557		0.0522	0.0497	0.0452			0.0444	0.049	0.046	0.0541		0.0525		0.0279	
G150L	0.0691	0.0528	0.0685	0.0585	0.0607	0.0531	0.0435	0.0664	0.049	0.0544	0.0629			0.0717	0.0618		0.0901	0.0585	0.0557
G150F	0.0581	0.0497		0.0586		0.054	0.0643			0.0499	0.0561	0.0449		0.0576			0.0639		0.0502
M188L	0.0988	0.114	0.151	0.126				0.0944		0.119	0.116		0.0933				0.0965		
M188T	0.121	0.115	0.118	0.0944	0.112	0.0992				0.0952	0.0999	0.0888					0.0992	0.119	
P155M	0.0937	0.0622	0.0731	0.0866		0.0685		0.0601	0.0699	0.072	0.0815	0.0679		0.0779		0.0791	0.0588		
P155E	0.0359	0.0515	0.0201		0.0233	0.048	0.0332		0.0575	0.0487	0.0445	0.0751	0.0474	0.0425			0.0612	0.0231	
P155F	0.0503	0.0585	0.058			0.0518	0.0375				0.0591	0.0543		0.0551			0.0597	0.0661	0.0777
T192D	0.108	0.0907	0.106		0.112	0.0824		0.0717		0.0882	0.11	0.0959				0.114		0.156	
T192P	0.0607	0.0659	0.065	0.0684	0.056	0.0613	0.0526	0.0577		0.0667	0.0659	0.0596	0.0667	0.0967			0.0568	0.0723	
T147Y	0.0757	0.0766	0.0642	0.111	0.0711	0.0604			0.0435		0.0694	0.0596		0.0658		0.0786	0.0461	0.067	
Q151H	0.0047	0.0806	0.0842			0.0618	0.0962				0.095	0.0817	0.0819	0.105			0.0907	0.0902	
Q151S	0.142	0.0852	0.123	0.151	0.134	0.0998		0.0799	0.125	0.0978	0.0869	0.0852	0.108	0.106				0.16	0.134
F180I	0.0676	0.063	0.0557	0.0533			0.0826		0.0476	0.0881	0.0668	0.0471	0.0487	0.0732		0.0477	0.0536	0.0727	0.061
L156K	0.0477	0.0493	0.0595	0.0499	0.0251	0.0385	0.0579				0.0586	0.0531	0.051		0.0594		0.0521	0.0382	
V165D	0.0499	0.0568		0.0494		0.0417	0.0425		0.0533	0.0354	0.0533	0.0547	0.0545		0.053	0.0438	0.0485	0.0726	0.0375
